# Laboratory results reported in publication PMC8641752.
# Positions count from the first letter of the chain named. Names may count otherwise. No constants are given. Whether binding was seen depends on the method and setting. In cells and extracts the contact can be indirect. Some binding calls cover weakened binding; strength is not graded here. Tags and fused reporters may be left off the sequences shown.
# T1: Hmg2-GFP (S. cerevisiae) (UniProt P12684)
# T1 sequence (chain, polyubiquitin chain conjugated in cells (sites not printed)): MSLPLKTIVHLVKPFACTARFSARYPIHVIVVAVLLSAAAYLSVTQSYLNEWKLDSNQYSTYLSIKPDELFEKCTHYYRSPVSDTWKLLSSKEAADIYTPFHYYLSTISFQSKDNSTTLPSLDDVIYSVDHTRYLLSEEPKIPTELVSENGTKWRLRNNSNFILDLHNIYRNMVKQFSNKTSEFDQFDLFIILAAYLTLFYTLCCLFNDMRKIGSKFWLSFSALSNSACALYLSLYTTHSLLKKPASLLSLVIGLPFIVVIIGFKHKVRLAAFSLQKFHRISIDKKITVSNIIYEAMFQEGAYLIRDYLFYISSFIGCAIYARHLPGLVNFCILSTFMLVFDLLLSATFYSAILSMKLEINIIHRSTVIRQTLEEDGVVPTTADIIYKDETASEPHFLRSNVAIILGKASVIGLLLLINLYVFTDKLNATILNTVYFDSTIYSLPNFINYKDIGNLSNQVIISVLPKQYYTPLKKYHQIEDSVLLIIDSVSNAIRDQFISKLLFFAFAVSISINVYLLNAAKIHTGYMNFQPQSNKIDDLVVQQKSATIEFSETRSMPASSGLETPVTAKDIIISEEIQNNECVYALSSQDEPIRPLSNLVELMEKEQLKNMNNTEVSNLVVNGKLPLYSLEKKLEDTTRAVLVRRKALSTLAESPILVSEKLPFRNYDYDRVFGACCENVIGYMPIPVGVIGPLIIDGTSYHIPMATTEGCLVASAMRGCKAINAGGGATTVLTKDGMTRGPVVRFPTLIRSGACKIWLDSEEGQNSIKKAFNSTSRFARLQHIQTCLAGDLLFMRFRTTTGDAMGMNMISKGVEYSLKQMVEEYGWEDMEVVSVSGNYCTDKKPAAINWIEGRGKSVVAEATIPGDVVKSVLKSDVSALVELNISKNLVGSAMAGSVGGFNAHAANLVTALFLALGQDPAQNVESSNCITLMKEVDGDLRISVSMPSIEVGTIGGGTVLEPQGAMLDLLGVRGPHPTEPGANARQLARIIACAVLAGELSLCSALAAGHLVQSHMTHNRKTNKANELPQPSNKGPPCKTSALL
# B1: Dfm1-W62A (protein, UniProt Q12743 1-341)
# chain: MAGPRNVRTLHGNGGRNNDVMGPKEFWLNIPPITRTLFTLAIVMTIVGRLNLINPWYFIYVANLTFKKVQIWRLLTSCVMLSSRAMPALMELYSIYDRSSQLERGHFGPGLSNRRGPMVTVDYAYYLCFCILAITTATTIIYGSYYPVVLTSGFISCITYTWSIDNANVQIMFYGLIPVWGKYFPLIQLFISFVFNEGDFVISLIGFTTGYLYTCLDTHTLGPIWGMISRKADPTYGISPNGKFSTPWWFTSLYARITGAHNETATFNNNFANVPSSQRETRTFSGRGQRLGTAPATLSQTSGTDSGRASGSQLRSGPSNLNQFQGRGQRVGQTNSPSDSQ
# B2: Dfm1-F66A (protein, UniProt Q12743 1-341)
# chain: B1 chain with A62W, F66A
# B3: Dfm1-V69A (protein, UniProt Q12743 1-341)
# chain: B1 chain with A62W, V69A
# B4: Der1-HA (protein, UniProt P38307 1-211)
# chain: MDAVILNLLGDIPLVTRLWTIGCLVLSGLTSLRIVDPGKVVYSYDLVFKKGQYGRLLYSIFDYGAFNWISMINIFVSANHLSTLENSFNLRRKFCWIIFLLLVILVKMTSIEQPAASLGVLLHENLVYYELKKNGNQMNVRFFGAIDVSPSIFPIYMNAVMYFVYKRSWLEIAMNFMPGHVIYYMDDIIGKIYGIDLCKSPYDWFRNTETP
# B5: Dfm1-F58A (protein, UniProt Q12743 1-341)
# chain: B1 chain with F58A, A62W
# B6: Dfm1-L64A (protein, UniProt Q12743 1-341)
# chain: B1 chain with A62W, L64A
# B7: Dfm1-K67A (protein, UniProt Q12743 1-341)
# chain: B1 chain with A62W, K67A
# B8: Dfm1-K68A (protein, UniProt Q12743 1-341)
# chain: B1 chain with A62W, K68A
# B9: Dfm1-Q70A (protein, UniProt Q12743 1-341)
# chain: B1 chain with A62W, Q70A
# B10: Dfm1-I71A (protein, UniProt Q12743 1-341)
# chain: B1 chain with A62W, I71A
# B11: Dfm1-W72A (protein, UniProt Q12743 1-341)
# chain: B1 chain with A62W, W72A
# B12: Dfm1-R73A (protein, UniProt Q12743 1-341)
# chain: B1 chain with A62W, R73A
# B13: Dfm1-L75A (protein, UniProt Q12743 1-341)
# chain: B1 chain with A62W, L75A
# Molecular target: T1, Hmg2-GFP (S. cerevisiae)
# Assay: co-IP; substrate (Hmg2-GFP, Ste6*-GFP, CPY*-GFP with GFP-Trap; Pdr5*-Myc with Myc Trap) precipitated from yeast microsomes solubilised in Tween IP buffer (500 mM NaCl, 50 mM Tris pH 7.5, 10 mM EDTA, 1.5% Tween-20), overnight 4°C; blots with anti-HA, anti-Cdc48
row,Binder,binding
1,B1,binds
2,B2,binds
3,B3,binds
4,B4,no binding
5,B5,no binding
6,B6,no binding
7,B7,no binding
8,B8,no binding
9,B9,no binding
10,B10,no binding
11,B11,no binding
12,B12,no binding
13,B13,no binding
